In PubChem BioAssay (NCATS):
Where “and” joins values, the source holds several entries; their conditions need not be identical. Equal entries are not always repeated. Inconclusive results, whose numbers are uncertain, are shown with a selection of clear calls. Where the call is inconclusive, the potency comes from a doubtful curve fit. Calls of active or inactive are those of the source. Unless noted, calls follow the shape of the dose curve; as a rule, active = well fitted curve in the direction sought with a large enough effect in the repeat runs; inconclusive = weak or mixed curves; inactive = no such curve, though single readings can be large; an effect the other way counts as inactive or inconclusive. Numbered stars: 1 amine (or outer) side, 2 acyl side, 3 side chain; on linkers, the order of the positions; unused ones are H or OH. Bridge positions count the residues as written; N and C are the ends. Square brackets hold non-standard residues; d marks the D form. Peptide text beside a SMILES is read from it. * marks the point of attachment. ξ: configuration not given here. X10 = NC1=NCCC(C(N[*:1])C(=O)[*:2])N1; ΔAla(3-NHCONH2) = NC(=O)NC=C(N)C(=O)O; ξβ3hOrn = NCCCC(N)CC(=O)*; Dap = NC[CH](N)C(=O)O

Columns and labels:
[1] = Primary qHTS for small molecule stabilizers of the endoplasmic reticulum resident proteome: Secreted ER Calcium Modulated Protein (SERCaMP) assay (AID 1508630; active = well fitted curve in the direction sought with a large enough effect; inconclusive = small, poorly fitted or top-dose-only effect, or another doubt; inactive = no such curve, though single readings can be large; an effect the other way counts as inactive or inconclusive; as to activity change, negative = inhibition: % is scaled to controls: 0 for no effect and ±100 for the full control effect); settings: SH-SY5Y GLuc-SERCaMP (Gaussia luciferase released on ER calcium loss) secretion, thapsigargin, luminescence; activity change, negative = inhibition: at 38.4 µM (top of the series) unless noted
In short: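 The SH-SY5Y reporter protocol was run at 3 concentrations up to 38.3 uM (primary) or 11 concentrations (follow-up): 16 h compound, 100 nM thapsigargin for 4 h, then extracellular luciferase luminescence.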

[2] = target: Cytochrome P450 2D6 (Homo sapiens) (UniProt P10635); experiment: Cytochrome P450 family 2 subfamily D member 6 (CYP2D6) small molecule antagonists: luciferase biochemical (cell-free) qHTS assay (AID 1645840); settings: P450-Glo CYP2D6 enzyme, luciferin luminescence, 1 h; series mostly up to 57.4 µM; also: nearly all actives have a fitted effect of over 55% in size; as to activity change, negative = inhibition: % is scaled to controls: 0 for no effect and ±100 for the full control effect
Chain of UniProt P10635 (P10635 whole entry, looked up): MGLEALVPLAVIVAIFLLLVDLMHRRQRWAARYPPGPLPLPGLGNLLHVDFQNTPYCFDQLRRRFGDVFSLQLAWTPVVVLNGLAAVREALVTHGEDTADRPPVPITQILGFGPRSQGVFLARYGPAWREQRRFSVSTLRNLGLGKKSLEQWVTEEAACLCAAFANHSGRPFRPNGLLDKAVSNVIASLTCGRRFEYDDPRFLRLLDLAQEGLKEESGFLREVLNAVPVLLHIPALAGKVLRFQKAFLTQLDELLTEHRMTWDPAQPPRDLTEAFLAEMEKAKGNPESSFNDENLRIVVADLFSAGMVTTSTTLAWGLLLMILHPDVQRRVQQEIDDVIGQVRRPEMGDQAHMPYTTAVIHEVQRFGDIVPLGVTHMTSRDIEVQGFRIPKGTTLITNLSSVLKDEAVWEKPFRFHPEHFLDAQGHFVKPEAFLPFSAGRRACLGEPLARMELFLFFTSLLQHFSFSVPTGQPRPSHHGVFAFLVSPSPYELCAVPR
In short: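 P450-Glo CYP2D6 system: proluciferin substrate converted by enzyme to luciferin, read by luminescence proportional to activity. Enzyme-substrate mix with compound 10 min at room temperature, then NADPH regeneration 1 h before detection reagent.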

[3] = A High-Content qHTS Against Drug Library for the Identification of Small Molecules that Inhibit DYT1 Early Onset Primary Dystonia-Associated Cell Pathology (AID 1645839; calls by dose curve); settings: HEK293 Flp-In EGFP-delE TorsinA, punctate imaging, 48 h; series mostly up to 46.1 µM
In short: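 Induced EGFP-delE TorsinA cells are imaged after 48 h of compound treatment. Punctate fusion-protein distribution gives the %pathology value, while nuclei counts flag toxicity. Wild-type EGFP-hTOR1A cells define the normal pattern.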

[4] = target: Cytochrome P450 3A4 (Homo sapiens) (UniProt P08684); experiment: Cytochrome P450 family 3 subfamily A member 4 (CYP3A4) small molecule antagonists: luciferase qHTS assay (AID 1645841); settings: P450-Glo CYP3A4 enzyme assay, luciferin luminescence; series mostly up to 57.4 µM; also: nearly all actives have a fitted effect of over 45% in size
Chain of UniProt P08684 (P08684 whole entry, looked up): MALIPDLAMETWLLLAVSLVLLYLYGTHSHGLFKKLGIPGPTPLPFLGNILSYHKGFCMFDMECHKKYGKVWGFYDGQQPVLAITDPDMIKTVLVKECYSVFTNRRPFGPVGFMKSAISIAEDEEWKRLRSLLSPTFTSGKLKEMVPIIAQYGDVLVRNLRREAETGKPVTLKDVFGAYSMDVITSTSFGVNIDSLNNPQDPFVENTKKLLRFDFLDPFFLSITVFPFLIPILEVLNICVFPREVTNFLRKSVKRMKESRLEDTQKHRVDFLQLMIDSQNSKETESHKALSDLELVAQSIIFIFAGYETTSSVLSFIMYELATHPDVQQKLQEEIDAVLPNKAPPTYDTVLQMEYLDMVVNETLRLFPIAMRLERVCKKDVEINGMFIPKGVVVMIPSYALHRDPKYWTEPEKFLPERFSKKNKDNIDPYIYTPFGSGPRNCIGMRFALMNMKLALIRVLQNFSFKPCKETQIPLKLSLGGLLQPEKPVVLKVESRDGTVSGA
In short: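 P450-Glo CYP3A4 enzyme with proluciferin substrate was preincubated with DMSO-dissolved compounds for 10 min at room temperature. NADPH regeneration solution started a 1 h reaction. Detection reagent stopped it, and luminescence was read after 20 min.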
Potency is read from the fitted curve at half-maximal effect; tags tell the direction and shape of the fitted curve.

Compound: Cc1oncc1C(=O)Nc1ccc(C(F)(F)F)cc1
- Potency [1]: inconclusive: 2 µM [inhibitor, full curve]
- Potency [2]: inconclusive: 24.5 µM [inhibitor, single point]

Compound: CC1CN(c2cc3c(cc2F)c(=O)c(C(=O)O)cn3-c2ccc(F)cc2F)CCN1 (centres undefined)
- activity change, negative = inhibition [1]: inactive: -17% [at 3.88 µM]
- activity change, negative = inhibition [2]: inactive: -0.861% [at 4.83 µM]

Compound: Cc1ccc(S(=O)(=O)NC(=O)NC2CCCCC2)cc1
- Potency [1]: inactive
- Potency [2]: inactive

Compound: CCCS(=O)c1ccc2nc(NC(=O)OC)[nH]c2c1 (centres undefined)
- Potency [1]: inactive
- Potency [3]: inconclusive: 11.2 µM [inhibitor, partial curve]
- Potency [2]: inconclusive: 30.9 µM [inhibitor, partial curve, poor fit]
- Potency [4]: inactive

Compound: CCOc1cc(NC(C)=O)ccc1C(=O)OC
- Potency [1]: inconclusive: 10 µM [inhibitor, partial curve, poor fit]
- Potency [4]: inconclusive: 17.4 µM [falling, partial curve, poor fit]

Compound: CN(C)[C@@H]1C(=O)C(C(N)=O)=C(O)[C@@]2(O)C(=O)C3=C(O)c4c(O)cccc4C[C@H]3C[C@@H]12
- Potency [1]: inconclusive: 2.82 µM [inhibitor, full curve]
- Potency [4]: inactive

Compound: OC(CCN1CCCCC1)(c1ccccc1)c1ccccc1
- Potency [1]: inconclusive: 28.2 µM [inhibitor, single point]
- Potency [2]: active: 0.617 µM

Compound: FC(F)(F)C(F)(F)C(F)(F)C(F)(F)C(F)(F)C(F)(F)C(F)(F)C(F)(F)Br
- Potency [1]: inconclusive: 11.2 µM [inhibitor, partial curve, poor fit]
- Potency [3]: inactive
- Potency [4]: inconclusive: 21.3 µM [falling, single point]

Compound: Cc1c(C)n(Cc2ccccc2)c2ccc(C(=O)OCCN(C)C)cc12
- Potency [3]: active: 11.2 µM

Compound: COc1ccc(C2CC(c3ccccc3)=NN2c2ccc(S(N)(=O)=O)cc2)cc1 (centres undefined)
- Potency [1]: inconclusive: 29.8 µM [inhibitor, single point]
- Potency [2]: inconclusive: 8.49 µM [inhibitor, partial curve]

Compound: CN(C)CCn1nnnc1SCC1=C(C(=O)O)N2C(=O)[C@@H](NC(=O)Cc3csc(N)n3)[C@H]2SC1
- Potency [1]: inconclusive: 4.47 µM [inhibitor, partial curve, poor fit]
- Potency [2]: inconclusive: 17.4 µM [inhibitor, partial curve, poor fit]
- Potency [4]: inconclusive: 19.5 µM [falling, partial curve, poor fit]

Compound: CCCCCCCCCCCCOCCO
- Potency [1]: inconclusive: 35.5 µM [inhibitor, partial curve, poor fit]
- Potency [2]: inconclusive: 38.9 µM [inhibitor, partial curve, poor fit]

Compound: CCCNC(C)C(=O)Nc1ccccc1C (centres undefined)
- Potency [1]: inconclusive: 2.24 µM [inhibitor, full curve, poor fit] and inactive
- Potency [2]: inconclusive: 30.9 µM [inhibitor, single point] and inconclusive: 37.9 µM [inhibitor, single point]

Compound: c1ccc2occc2c1
- Potency [1]: inconclusive: 3.16 µM [inhibitor, full curve]
- Potency [2]: inconclusive: 22.4 µM [inhibitor, partial curve]

Compound: CC(=C(CCOC(=O)C(C)C)SSC(CCOC(=O)C(C)C)=C(C)N(C=O)Cc1cnc(C)nc1N)N(C=O)Cc1cnc(C)nc1N
- Potency [1]: inactive
- Potency [2]: inactive

Compound: Nc1nc2ccc([N+](=O)[O-])cc2s1
- Potency [1]: inconclusive: 31.6 µM [inhibitor, full curve]
- Potency [2]: inconclusive: 53.2 µM [inhibitor]

Compound: CC(C(=O)O)c1ccc(C(=O)c2ccccc2)s1 (centres undefined)
- Potency [1]: inconclusive: 31.6 µM [inhibitor, full curve]
- Potency [2]: inactive

Compound: CN(C)CCCSc1ccccc1NC(=O)/C=C/c1ccccc1
- Potency [1]: inactive
- Potency [2]: active: 0.347 µM

Compound: CNCc1ccc(-c2[nH]c3cc(F)cc4c3c2CCNC4=O)cc1
- Potency [1]: inactive
- Potency [2]: inconclusive: 26.8 µM [inhibitor, partial curve]

Compound: CCC[C@@H]1C[C@@H](C(=O)N[C@@H]([C@H]2O[C@H](SC)[C@H](O)[C@@H](O)[C@H]2O)[C@@H](C)O)N(C)C1
- Potency [1]: inconclusive: 3.55 µM [inhibitor, full curve, poor fit]
- Potency [3]: inactive
- Potency [4]: inactive

Compound: Cc1ccc(C(=O)c2ccc(CC(=O)O)n2C)cc1
- Potency [1]: inconclusive: 31.6 µM [inhibitor, partial curve]
- Potency [2]: inactive

Compound: c1ccc2[nH]c(-c3cscn3)nc2c1
- Potency [1]: inconclusive: 1.06 µM [inhibitor, partial curve, poor fit]
- Potency [2]: inconclusive: 15.5 µM [inhibitor, partial curve] and inconclusive: 23.9 µM [inhibitor, single point]

Compound: CC(C(=O)O)c1ccc2c(c1)[nH]c1ccc(Cl)cc12 (centres undefined)
- Potency [1]: inconclusive: 25.1 µM [inhibitor, partial curve, poor fit]
- Potency [2]: inactive

Compound: CCOCCOC(=O)/C=C/c1ccc(OC)cc1
- Potency [1]: inconclusive: 11.2 µM [inhibitor, partial curve, poor fit]
- Potency [4]: inconclusive: 34.7 µM [falling, single point]

Compound: NCCCC(N)CC(=O)NCC1NC(=O)C(CO)NC(=O)C(N)CNC(=O)C(C2CCN=C(N)N2)NC(=O)C(=CNC(N)=O)NC1=O (stereo not drawn) (H-[Dap]S[Dap](ξβ3hOrn)[ΔAla(3-NHCONH2)][X10]; lactam 1-C; configuration not given here)
- Potency [1]: inconclusive: 0.0891 µM [inhibitor, partial curve, poor fit]
- % pathology change, negative = correction [3]: inactive: -14.9% [at 0.369 µM]
- activity change, negative = inhibition [4]: inactive: -11.7% [at 0.91 µM]

Compound: CN1CC(=O)N/C1=N/C(=O)Nc1cccc(Cl)c1
- Potency [1]: inconclusive: 2.24 µM [inhibitor, full curve, poor fit]
- Potency [2]: inconclusive: 38.9 µM [inhibitor, single point]

Compound: Cc1ccc(C)c(OCCCC(C)(C)C(=O)O)c1
- Potency [4]: inactive

Compound: CON=C(C(=O)N[C@@H]1C(=O)N2C(C(=O)OCOC(=O)C(C)(C)C)=C(C=Cc3scnc3C)CS[C@H]12)c1csc(N)n1
- Potency [2]: inconclusive: 21.3 µM [inhibitor, single point]

Compound: CN1CCC[C@@H]1c1cccnc1
- Potency [2]: inactive
- Potency [4]: inactive

Compound: O=c1oc2cc(O)ccc2s1
- Potency [2]: inactive

Compound: CC(=O)OCC(=O)[C@@]1(O)CC[C@H]2[C@@H]3CCC4=CC(=O)C=C[C@]4(C)[C@H]3[C@@H](O)C[C@@]21C
- Potency [2]: inconclusive: 43.6 µM [inhibitor, partial curve, poor fit]

Compound: COc1cc2c(Oc3ccc(NC(=O)C4(C(=O)Nc5ccc(F)cc5)CC4)cc3F)ccnc2cc1OCCCN1CCOCC1
- Potency [2]: inconclusive: 10.7 µM [inhibitor, partial curve]

Compound: C#CC(C)(CC)OC(=O)c1ccccc1C(=O)O (centres undefined)
- Potency [2]: inactive

Compound: O=C(OCc1ccccc1)c1ccccc1
- Potency [2]: inactive

Compound: COc1ccc(-c2cc(=S)ss2)cc1
- Potency [2]: inconclusive: 11 µM [inhibitor, partial curve, poor fit]
- Potency [4]: inconclusive: 11 µM [falling, partial curve]

Compound: COc1cccc(-c2ccc(NC(=O)C3=C(C(=O)O)CCC3)c(F)c2)c1
- Potency [2]: inconclusive: 26.8 µM [inhibitor, single point]

Compound: O=C(CCN1CCN(C(=O)OCc2cc(Cl)cc(Cl)c2)CC1)c1ccc2[nH]c(=O)oc2c1
- Potency [2]: inconclusive: 15.1 µM [inhibitor, single point]

Compound: C[C@H](NC(=O)c1sccc1OCc1ccc(Cl)cc1)c1ccccc1
- Potency [2]: inconclusive: 15.1 µM [inhibitor, partial curve]

Compound: COc1cc2c3cc1Oc1cc(ccc1O)C[C@@H]1c4c(cc(OC)c(O)c4Oc4ccc(cc4)C[C@@H]3N(C)CC2)CC[N+]1(C)C
- Potency [2]: inactive

Compound: c1ccc2sc(SN3CCOCC3)nc2c1
- Potency [2]: inconclusive: 21.3 µM [inhibitor, single point]

Compound: Cc1ccnc(NS(=O)(=O)c2ccc(N)cc2)n1
- Potency [2]: inactive

Compound: CC(C)C(=O)Nc1ccc([N+](=O)[O-])c(C(F)(F)F)c1
- Potency [2]: inconclusive: 27.5 µM [inhibitor, single point]

Compound: CCCCc1ccc2nc(NC(=O)OC)[nH]c2c1
- Potency [2]: inconclusive: 4.36 µM [inhibitor, full curve]

Compound: CCCC(=O)O[C@]1(C(=O)CCl)[C@@H](C)C[C@H]2[C@@H]3CCC4=CC(=O)C=C[C@]4(C)[C@@]3(F)C(=O)C[C@@]21C
- Potency [2]: inconclusive: 3.09 µM [inhibitor, full curve]

Compound: O=C1C[C@@H](c2ccc(O)cc2)Oc2cc(O)cc(O)c21
- Potency [2]: inconclusive: 37.9 µM [inhibitor, single point]

Compound: O=C1CN(/N=C/c2ccc([N+](=O)[O-])o2)C(=O)N1
- Potency [2]: inconclusive: 13.8 µM [inhibitor, partial curve]

Compound: Cc1cc2cc3c(C)cc(=O)oc3c(C)c2o1
- Potency [4]: inconclusive: 2.45 µM [falling, full curve]

Compound: CNC1CCCN(c2c(F)cc3c(=O)c(C(=O)O)cn(C4CC4)c3c2OC)C1 (centres undefined)
- Potency [4]: inactive

Compound: CCC(C(=O)O)c1ccc(N2Cc3ccccc3C2=O)cc1 (centres undefined)
- Potency [2]: inconclusive: 27.5 µM [inhibitor, single point]

Compound: O=C(c1ccccc1)c1ccc2n1CCC2C(=O)O (centres undefined)
- Potency [2]: inconclusive: 13.8 µM [inhibitor, partial curve]

Compound: CCOC(=O)N1CCC(n2c(=O)[nH]c3cc(Cl)ccc32)CC1
- Potency [2]: inconclusive: 17.4 µM [inhibitor, partial curve]
